The supplement of paper PMC3334620
Whole data set: some 33,000 sequences, median “E-score (-0.5 to 0.5)” near -0.032, cut for the highest 2% near 0.36. The list shows a part of the results.

Each sequence was assayed against T1, Sko1 (UniProt Q02100) (assay: PBM E-score (8-mer binding enrichment) (E-score (-0.5 to 0.5)); higher = stronger / more preferred TF binding; most listed sequences are background and not binding sites). Settings: protein concentration: 200 nM; construct: GST-full length.
T1 sequence: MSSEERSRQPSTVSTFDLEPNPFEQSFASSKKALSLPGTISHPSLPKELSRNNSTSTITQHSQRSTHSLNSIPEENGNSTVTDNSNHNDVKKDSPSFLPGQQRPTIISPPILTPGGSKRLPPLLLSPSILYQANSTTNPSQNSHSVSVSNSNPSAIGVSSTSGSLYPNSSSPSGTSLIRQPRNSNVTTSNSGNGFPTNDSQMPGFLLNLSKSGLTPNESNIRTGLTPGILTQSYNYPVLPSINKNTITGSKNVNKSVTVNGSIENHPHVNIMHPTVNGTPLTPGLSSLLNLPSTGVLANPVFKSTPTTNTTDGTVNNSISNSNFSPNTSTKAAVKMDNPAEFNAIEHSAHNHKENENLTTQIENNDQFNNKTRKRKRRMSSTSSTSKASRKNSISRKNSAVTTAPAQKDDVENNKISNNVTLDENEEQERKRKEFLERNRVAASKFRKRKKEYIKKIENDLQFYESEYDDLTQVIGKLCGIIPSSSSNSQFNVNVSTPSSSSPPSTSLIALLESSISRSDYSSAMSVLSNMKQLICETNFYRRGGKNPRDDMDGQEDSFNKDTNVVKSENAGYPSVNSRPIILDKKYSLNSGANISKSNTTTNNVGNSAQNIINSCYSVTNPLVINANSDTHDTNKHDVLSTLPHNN
In short: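 Yeast transcription factors carrying a GST tag, as full-length proteins or DNA-binding domains, were produced by PURExpress in vitro transcription/translation. About 100-200 nM protein was applied to universal all-10-mer Agilent arrays, double-stranded by primer extension on fresh or once-stripped slides. Bound protein was detected with fluorescent anti-GST, and scans were normalised with masliner. The Universal PBM Analysis Suite gave each ungapped eight-base word, pooled with its reverse complement, an E-score, a modified Wilcoxon-Mann-Whitney statistic.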

Sequence	PBM E-score
CATAGATA	0.218
TTCGCGAA	0.222
CGGAAAGC	-0.0178
ATCTGCCC	-0.184
AAACTTAG	-0.0514
TCGATACA	0.177
ACTAGCAC	-0.0326
CCGGTGAC	0.147
CTCCGATA	-0.256
AGTTGTAA	0.0597
ATTTTATA	0.223
AGCAATGG	-0.217
GCTTCTAC	-0.08
GACCAGTC	-0.25
ATGGTGAG	0.0843
AGGACAGA	-0.196
CTTGAATA	0.0831
CCTCCCAA	-0.196
GGAGGAGA	-0.261
CAAATTGC	0.0668
ACGCTGCT	-0.116
GAACTAGA	0.0254
ATATGCTA	0.066
GCAAATAA	0.129
CGTCTCTA	0.00942

Sequence	PBM E-score
AACCTTCG	0.0377
AACCGTCA	0.0476
CTGGCGAC	-0.284
TTGTCAAA	0.0922
GTACTCAC	-0.00043
AAGTAAAG	-0.152
TAGGTAGA	-0.006
CCTTCAAA	-0.0268
ATTCCCAG	-0.072
CTGAGATA	0.0643
ACTGAGCT	-0.115
AAAGACTT	0.0404
GTCAATGA	0.181
AAAATGCG	0.178
CAAGGCGC	-0.374
GGGAAAGA	-0.119
GGGTGCAA	-0.181
TAAAGATA	0.147
CTTCACTA	0.0319
TAGTGCCA	-0.107
ACGCTAGA	-0.104
ACCGAGGA	-0.0663
AGTATGTA	0.0841
ATCAAGTA	0.0281
TAGTAAAA	0.197

Sequence	PBM E-score
ACAATCTG	0.00099
CCATACGA	0.14
AAGCAGTC	-0.178
TATCCTAA	0.0605
ACACCGGC	-0.183
CGACTGTA	-0.104
GAATTGCA	-0.04
CCAGCTCC	-0.39
ATACCTAC	0.126
ACTCGAAC	0.111
GATGACCC	-0.0957
AGACTGCG	-0.017
CTATGGAG	-0.156
TATTCTGA	-0.00141
AAGTTTAC	0.251
ATAGTTTA	0.0815
CTAGACGA	-0.0315
GCTTGAGA	-0.0643
AGTACGGC	-0.101
AGACTGGG	-0.231
ACACCGGG	-0.289
ATATCAAG	0.177
ATAAAGCA	-0.0086
AGATGTAA	0.256
CCCCTGAG	-0.276

Sequence	PBM E-score
CATACAGG	-0.0277
ACTGAGGG	-0.146
CTATCATC	0.0137
CGGTCCAA	-0.253
AGGAACTA	0.00161
ATAGGAAG	-0.108
ATGCCAGG	-0.34
CGTGATCA	0.241
AATCGTTA	0.23
TCCACGGA	0.0142
ATATGCCC	-0.186
GGCGCTGA	-0.119
ATCATGGC	-0.00549
ACATGTCG	0.0769
GTTTTCAA	0.182
GGAGCATA	-0.0066
ACTTGGTC	-0.0114
ACTATGGG	-0.125
CCGCCACG	0.00095
CACCGTTC	-0.142
AGTCGTCC	-0.114
AAGCATAC	0.0976
ACTGCCAC	-0.156
CCAACCGG	-0.161
AGTTCCTC	-0.183

Sequence	PBM E-score
TGGACCAA	-0.0668
ATAGACAC	0.0427
GATTCGAA	0.0666
GCCGATCA	-0.0181
ACTAATTA	0.334
AGATACAC	0.124
ACCGGGCT	-0.237
AGATTGCT	-0.111
CATCACAC	0.245
CACCATCC	-0.195
GAACAATC	0.132
AAATCAGC	0.103
AGTGATGC	0.146
GTTGAATA	0.129
CATGCAGG	-0.178
CTTCGCCC	-0.244
ATATCCAC	-0.0811
AAATGAGC	0.0483
ATTCGGCG	-0.244
AGGCGTAT	0.2
CGTACCTC	0.0538
GGCGAACA	-0.186
CAACGCAA	0.195
CCCGGCGG	-0.326
CGTCGTCC	-0.0443

Sequence	PBM E-score
GCTAACAC	0.094
ACATGGGG	-0.1
CCCATAAG	-0.23
AATGGCTA	0.0457
ACCCTAGG	-0.112
AGCCTCCT	-0.223
GGGTATGA	0.0602
CCAAAAGA	0.161
CACCGACG	0.217
GTTAGCAA	0.176
AGGCGAGC	-0.219
TCGTGAGA	-0.0852
AACCAGGC	-0.0446
CTCGCACC	-0.104
AAAGGCGC	-0.116
TCAAGTCA	0.0132
GTCCGGCA	-0.136
AAGAATTC	0.0539
GTCTGAAC	-0.105
ACGTTTTC	0.396
AAGGCGAA	-0.191
ATTAAAAA	0.263
AGGCAACC	-0.234
CCAGTGAC	0.053
ACCGGCAT	-0.0631

Sequence	PBM E-score
ATATGAAC	0.204
GTCACGGA	0.126
CAGATTGG	-0.256
ATATGGGG	-0.185
AAGATACA	0.227
AAGAAGTA	0.125
ATGGGGGC	-0.256
CAGTCCCC	-0.189
GGTCTGTA	-0.151
AGAGAGCG	-0.211
CACCAAGC	-0.208
CACAAATG	0.0399
ACTAGACG	0.197
CAACGGAA	0.146
GCGGACCC	-0.294
GTACGGCA	0.0279
GCTAGTGA	0.132
CGGCGCAG	-0.153
ACCCTCAT	-0.158
AGTACCAC	-0.0712
CCGGTTAG	-0.0983
ATACTCCG	-0.0889
AACGAGTG	0.0243
TAACAGGA	0.149
GCCGATAC	-0.077

Sequence	PBM E-score
CGAAATGC	0.0319
CACGCATC	0.164
ACCCCCCT	-0.392
CAACAATA	0.163
TACTGTCA	0.0461
AGGATTCA	0.048
CTACCGAA	-0.0488
CTCCAAGA	-0.189
CTGGAGTC	-0.208
CGCCTAAC	-0.145
ACTTCCCG	-0.215
GGCTAGTA	-0.116
AGTTAGGA	0.078
ACCCTCGT	0.0494
AATTGCGC	0.3
CATGGTAA	0.158
CTTTCCAC	0.00853
ACGTATAC	0.463
GTGCGACA	0.0366
AGGAATGA	0.135
ACGCAAGT	0.315
AGTTAGTC	-0.103
CGCGGGAC	-0.281
CATGGCAC	-0.0589
CGTATCGA	0.34

Sequence	PBM E-score
CGTGGGCA	0.0649
CGTGAGAA	0.117
CCACTCGA	-0.143
AACATTGA	0.00267
CACTTCCG	-0.112
GTTGCCTA	-0.0373
CTGCCGCC	-0.36
CAAGTTGA	0.0254
GACCATCA	-0.0829
AAAGTTAA	0.314
ACTTATAC	0.155
AAGTAAGT	0.0641
AACGGCAG	-0.125
CAATTCTC	0.0836
GATCTCGC	-0.102
ATTGTGTC	0.157
ATAGAAAG	-0.115
GTTGGACA	0.166
ATACCGCG	-0.0398
ATTTATTG	0.0213
GAGCGCTC	-0.238
TACTATGA	0.256
AGTCGGAC	-0.125
ATACCAAA	0.093
CCCCGCCC	-0.0456

Sequence	PBM E-score
CCGATTTC	-0.355
AACTTCTC	0.0726
ACAGATAG	0.0196
ATGCACTC	-0.098
GCTGGGTA	-0.301
AACAGTAT	0.216
ACTTATGG	-0.108
CCATTGAG	0.00857
AACGTTCC	0.0527
GGAGTTTA	-0.0493
CTTGAGAA	0.107
ATTTCGTA	0.372
TCCTACGA	-0.0486
TTCCCGAA	-0.0959
AGTGGGGA	-0.201
AAGCTCTC	-0.279
AGTTACTC	0.0295
ATATTTTG	0.157
ACTGTGTA	-0.0944
ACGCTATA	0.132
AAATTGAC	0.164
CCTTTTAG	-0.16
ATATATAA	0.22
ATGTCTCA	-0.0854
CCCGTATA	-0.0573

Sequence	PBM E-score
ACTCTGCT	-0.197
CCACACTC	0.00961
ATGCGAGC	-0.0993
ATACAAAA	0.216
GCACGTAC	0.34
ACACTTTC	-0.077
GCTGTGTA	0.0368
CTCTAAGC	-0.0238
ACAAAGAC	0.0779
CCCCCTCA	-0.35
CATAGGGA	-0.11
CCGAATAG	-0.145
ACCTAGGC	-0.177
CATCAGTC	-0.153
ACGTGGAT	0.398
ACGCAGTG	0.15
ACCCCAAC	-0.084
ATGTACAA	0.0603
ACGGTACC	-0.0695
ACAATATA	0.178
CTATGCAA	0.0735
CTCCAGTA	-0.049
CGCTCCTC	-0.391
TAACCAGA	-0.0453
ACTGCCAT	0.0307

Sequence	PBM E-score
ACCCTACG	0.242
AGTCATAC	0.262
ACCGGGAT	-0.257
CGTTCCGA	0.0271
GCACATCC	-0.0686
ATCCTCTC	-0.187
GGGAGGCA	-0.185
GTCGCAAA	0.0848
CGTACCCC	0.127
ACAAAGAT	0.118
AGGCTGTA	-0.0186
ACATTATC	0.205
AATTCCTA	0.138
CTAGGCAG	-0.298
ACACCGGT	-0.287
ACATGGAA	-0.00341
GAGTCACA	-0.0432
CCACAACA	-0.138
CGACCAGC	-0.0458
AGTCTTAA	-0.164
CCATAACA	0.116
ATTGGGTC	-0.0606
ACCGCTCG	-0.216
CTAGCTAA	0.141
GTTGAGTA	0.102

Sequence	PBM E-score
CCCAGAAC	-0.0415
AGCGCGAC	-0.0623
ATTTCTAA	0.0591
AATCCTAC	-0.0223
ATTCGGCA	-0.142
CATCAAGC	-0.0149
AGTCCAGC	-0.249
AACCTTTG	-0.0506
GGCCGCCC	-0.308
AAGCGTCA	0.353
GGTTAACC	-0.177
CGATTCCA	-0.127
AACATTCC	0.0401
CGAGGTTC	-0.0792
AGGTTACC	0.156
ATGAAACC	-0.0465
AGTCCCAA	-0.196
CGGAGTTC	0.0475
AATTGTGA	0.233
TGTGAGAA	-0.0232
ACGGGATC	0.112
TCCACCCA	-0.166
GAGAGTCA	-0.0313
GCACTGAA	-0.0738
ATGTAGTA	0.254

Sequence	PBM E-score
ATCAGCTC	0.0812
TAAGTCTA	-0.122
CTAACCCA	0.058
CGGCCCCC	-0.424
TGTTGAAA	0.0764
CTTTAGGA	-0.113
AAGCTGTG	0.00242
ATGAGCTA	0.169
GGGATTTA	-0.0501
ACCATCAT	0.09
GTTAAATA	0.167
GAACGGCA	-0.116
CAGCACGA	-0.16
CACGTAAC	0.449
AGTATGTG	0.0562
GCCGCTAC	-0.0843
TCTTTGAA	0.0783
CACTATCA	0.0733
GAACAAAA	0.122
